According to PubChem BioAssay (Tox21):
Where “and” joins values, the source holds several entries; their conditions need not be identical. Equal values may be shown once. Inconclusive results, whose numbers are uncertain, are shown with a selection of clear calls. Potencies beside an inconclusive call are fits to weak or partial responses and may not hold up. The source holds several records for some structures; these can differ, active in one and inactive in another. Calls of active or inactive are those of the source. The call rests on the fitted dose curve; in most records, active means well fitted activation curve with a large enough effect in the repeat runs; inconclusive means weak or mixed curves; inactive means flat fitted curve, though single readings scatter.

experiment: A CellTox Green Cytotoxicity Assay to monitor cytotoxicity in HEK293 cells - 32 hour (AID 1224881); conditions: CellTox Green fluorescence; series mostly up to 76.8 µM; cytotoxicity increase: at the top concentration; further: nearly all actives have a fitted effect of over 40% in size
Procedure, shortened: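 Cytotoxicity was tracked continuously in HEK293 cells by a DNA-binding dye excluded from viable cells. Compounds were transferred in DMSO 5 h after seeding; fluorescence was recorded at intervals up to 40 h.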
On the % scale 0 is the no-effect control and ±100 the full control effect; potency means the concentration at half of the fitted maximal effect; tags describe the fitted curve by direction and shape.

Compound	Potency	cytotoxicity increase
CN1CCN(C2Cc3ccccc3Sc3ccc(Cl)cc32)CC1 (stereo unspecified)	active: 21.3 µM	–
C=CC(=O)OCCCCCCOC(=O)C=C	inconclusive: 55.6 µM [activator, single point] and inconclusive: 54.9 µM [activator, single point]	–
Oc1c(Cl)cc(Cl)cc1Sc1cc(Cl)cc(Cl)c1O	inconclusive: 55.9 µM [activator, single point]	–
CN(C)[C@@H](CCOc1cccc2ccccc12)c1ccccc1	inconclusive: 26.8 µM [activator, single point]	–
Cc1ccc2c(n1)Oc1ccc(C(C)C(=O)OCC(=O)N(C)C)cc1C2 (stereo unspecified)	inactive	–
CC(COc1ccccc1)N(CCCl)Cc1ccccc1 (stereo unspecified)	active: 55.5 µM and inconclusive: 54.9 µM [activator, single point] and active: 21.3 µM	–
CCCC(C(=O)OCCN(CC)CC)(c1ccccc1)c1ccccc1	inconclusive: 26.8 µM [activator, single point]	–
Cc1cccc2c1cc1ccc3cccc4ccc2c1c34	inconclusive: 56.2 µM [activator, single point]	–
CCCN(CCc1cccs1)[C@H]1CCc2c(O)cccc2C1	inconclusive: 26.8 µM [activator, single point]	–
O=C1OC2(c3ccccc31)c1cc(I)c(O)c(I)c1Oc1c2cc(I)c(O)c1I	active: 11.8 µM [middle of 4 runs]	–
CC(C)C(C)(C)C(C)(C)C(C)(C)S	–	inactive: -4.58%
CCCCCCCCCCCCCCCCCCOS(=O)(=O)O	inconclusive: 54.9 µM [activator, single point]	–
CCN(CC)C(=O)c1cc(S(=O)(=O)Cc2ccccc2)c(N2CCC(c3ccccc3)CC2)cc1N(CC)CCN(C)C	active: 19.3 µM	–
CCN(CC)CCSC(=O)C(c1ccccc1)c1ccccc1	inconclusive: 26.8 µM [activator, single point]	–
C[C@H](CCC(=O)O)[C@H]1CC[C@H]2[C@@H]3CC[C@@H]4C[C@H](O)CC[C@]4(C)[C@H]3C[C@H](O)[C@]12C	inconclusive: 61.9 µM [activator, single point]	–
CCCCC(CC)COP(=O)(O)OCC(CC)CCCC (stereo unspecified)	inconclusive: 49.1 µM [activator, single point] and active: 43.6 µM	–
Nc1nc(=S)c2[nH]cnc2[nH]1	inactive	–
COc1cc(C(C)(C)C)c(O)c(C(C)(C)C)c1	active: 43.6 µM	–
O=C(O)c1cccc(Cl)n1	inconclusive: 54.9 µM [activator, single point]	–
CC1(C)CCC[C@]2(C)[C@H]3CCO[C@]3(C)CC[C@@H]12	inconclusive: 21.9 µM [activator, single point]	–
CCCCCCCC/C=C\CCCCCCCC(N)=O	inconclusive: 54.9 µM [activator, single point]	–
O=C(Cl)c1cc(C(=O)Cl)cc(C(=O)Cl)c1	inconclusive: 54.9 µM [activator, single point]	–
c1ccc2sc(SSN3CCOCC3)nc2c1	active: 38.8 µM and active: 54.9 µM	–
Cc1ccc(O)c(O)c1	inconclusive: 53.4 µM [activator, single point]	–
CCCCCCCCCCCCCCCC(=O)OC[C@H](O)[C@H]1OC(=O)C(O)=C1O	inconclusive: 54.9 µM [activator, single point]	–
C=C[C@](C)(O)CC[C@@H]1[C@@]2(C)CCCC(C)(C)[C@@H]2CC[C@@]1(C)O	active: 43.6 µM	–
